In publication PMC12136788 one finds binding signal data, which are given here for 22 molecules.

This is one part of the list.

To fix the notation:
B1: chr9:96327448:96327449:+_ENSG00000048828_ENST00000277165|hu_mus|FALSE|FALSE (ssRNA)
RNA: GGGAGUUCUACAGUCCGACGAUCUAGUCACGAGGUUUCAGAACACAUUGUGUUGACUUUGAAAGGUCAUUUGCAUCUUCUAUGAUUUCAACGUAAUCUCCAUUGAACUUGCUUGUAAAGGAUGUAUGAUGUACUGUGUAUUCACAACAGAGGAUUGAGCAUCA
B2: chr14:31821845:31821846:+_ENSMUSG00000021916_ENSMUST00000168584|mus_mus|motif|central (ssRNA)
RNA: GGGAGUUCUACAGUCCGACGAUCGGGAAUCUCCUCUUGCCUCUCACUCACUGGAUGCUGAUGAGCACUGGCGACAAAGUCGGUGGGCUGAAGCCCCACAAUUCCCGAAUCUGAAAUGUCAUUCUUUAACAAACUGCUCAAGCUCAACAGAGGAUUGAGCAUCA
B3: chr9:35104861:35104862:-_ENSG00000005238_ENST00000378566|hu_mus|FALSE|FALSE (ssRNA)
RNA: GGGAGUUCUACAGUCCGACGAUCUGGGGUGAUGCCAAUUAUCAGGUUUGGGAGGUCACCAAGGCAAUCCAAUUUGAAUAAAUUAUAAAUUAAAAAUAAAUAAAAUAAUAAGUGGCCCCUGCCCAGGACAGGGAGGCAACGCUGCAACAGAGGAUUGAGCAUCA
B4: 116164458_116166158_504_CDS_ENSMUSG00000031028_ENSMUST00000033341|mouse|control|control (ssRNA)
RNA: GGGAGUUCUACAGUCCGACGAUCCAGCUGUACACUGGCAAUCGAGUCGGCCUCUUGAACUUGGUAGCUGGUGCUGCCACUGCUGCUGAGGUAGGACUCCACCAGGGGGGCUUGCUCCUCUGACUGCCGGGCUCGCCGACUCCGCAACAGAGGAUUGAGCAUCA
B5: chr1:10037540:10037541:+_ENSMUSG00000056763_ENSMUST00000071087|mus_hu|FALSE|FALSE (ssRNA)
RNA: GGGAGUUCUACAGUCCGACGAUCACCCCUGGUCUGUUGACUAUUUGGUGGUAUGUUUUCCUUAGCCAUAGAGAUCAGUAUCUUACUGUUUUCAGAAAGCUUCGCUGACAACUUUCCCUUCAUUUCCAUGUAAGGUGGAUCACUCAACAGAGGAUUGAGCAUCA
B6: chr10:33221514:33221515:-_ENSG00000150093_ENST00000302278|perfect_dup|FALSE|FALSE (ssRNA)
RNA: GGGAGUUCUACAGUCCGACGAUCAUUUGGCCCUGCUUGUAUACAUUCUCCACAUGAUUUGGCAUUUGCUUUUAAACAUCUAUUUUCAUCUGUUUGAGCAAACACACAGCAAACUGAACUGAUCAGUCCAAUCCAGAAAAUUGGCAACAGAGGAUUGAGCAUCA
B7: chr2:42472670:42472671:+_ENSG00000143924_ENST00000318522|hu_mus|FALSE|FALSE (ssRNA)
RNA: GGGAGUUCUACAGUCCGACGAUCCGUGACUCAAGAGCUGAGAGGCGGUCUUGAACGUCAGAGGUACUUGCAGCAGAAAUACUAUCAUCGAGGCUGCCGGCGAAACCGUCCAUCUUGCGGGGACCGCGCCGGGCUCGGGGCUCACAACAGAGGAUUGAGCAUCA
B8: chr7:7612872:7612873:+_ENSG00000164654_ENST00000405785|hu_hu|motif|central (ssRNA)
RNA: GGGAGUUCUACAGUCCGACGAUCUUUUGUUAAGGGUUUUGGUUGCUCAGUCAAUGUCAAAACUGGCUUCUCAAAUUUUCGGAGAUCCCAUAUUGCAACCUGACCUUCAUAGAAGGAAGCAACACGAUCGUGGAAAUAUGGGUCCAACAGAGGAUUGAGCAUCA
B9: chr3:148802587:148802588:-_ENSG00000071794_ENST00000310053|hu_mus|hu_hu_hu_mus_False|18_18 (ssRNA)
RNA: GGGAGUUCUACAGUCCGACGAUCUCCAACAACUUGUCCUCUCAUAGUUCCAAAUAAAACCAAAUCUUGCUCUUCAUCACUCGUUAGGAAGUCAUCUGGAGGAAUAAUGUCUUGGAAUUCAAAACGUGGCAAGAAAGUUGAGUACAACAGAGGAUUGAGCAUCA
B10: 171544204_171546629_2394_CDS_ENSG00000117523_ENST00000495585|human|control|control (ssRNA)
RNA: GGGAGUUCUACAGUCCGACGAUCGGUCCGAUGUGGUUGUAGAUUUUGUGCUCAAAGAAGAGGUAGUGUAUGUACCAGCUCCUGAUAGUGAUGCUGUAGGAGUGACUGAAGCAACAGGAAUCUGGGGCAUGGAUGCACUUGAGACAACAGAGGAUUGAGCAUCA
B11: chr2:38870607:38870608:+_ENSMUSG00000026755_ENSMUST00000090993|perfect_dup|FALSE|FALSE (ssRNA)
RNA: GGGAGUUCUACAGUCCGACGAUCGUCUUUUUAUUUUUUUUAAACAGUCUUUCUUGCUGUAAGAACUCUUAUAAUGGAGCCUAGUCCUCCUACUGCUAAGGCCUUUUCGUGCCACUGGAGUAACACUGCGCUGCUAUUUUCUGUCAACAGAGGAUUGAGCAUCA
B12: chr1:109605425:109605426:-_ENSG00000197780_ENST00000461096|hu_hu|FALSE|FALSE (ssRNA)
RNA: GGGAGUUCUACAGUCCGACGAUCUAGUCAAGGACACAUUUCCACAAUGAACAAGUACUUACAAAUAUGUUAAUAAAACACUAACCCAAAUGCUUACCCUGCCAUCAGCUUUUUAAACAAUGCCAUUCCUGCUACUGAAAGCAUCAACAGAGGAUUGAGCAUCA
B13: chr8:26196428:26196429:+_ENSG00000221914_ENST00000315985|hu_hu|FALSE|FALSE (ssRNA)
RNA: GGGAGUUCUACAGUCCGACGAUCUUUGUUCUCCUGCUCCUGUUGAAAGAUGACAACUCUACCACCUUUAUCUCCUGUUGCUAGUAAUUCUCCAGAAUGAUUAAAUUCUACUGUAGAAAUUAUAUCUGCUUCUGCUACAUCAUCCAACAGAGGAUUGAGCAUCA
B14: chr1:78444685:78444686:-_ENSG00000162613_ENST00000370768|hu_hu|FALSE|FALSE (ssRNA)
RNA: GGGAGUUCUACAGUCCGACGAUCACCAGCUGAGCCAGAAGAGGGGGGAGGCACUGUUGAAUAGUCUGCCAUGGUUGCACUAUAAGAGCCGCUGCCGCCUGUUCAGAGACUUCCUCUCAGCUAACAGCUAAGAAAGAAAGAAAACAACAGAGGAUUGAGCAUCA
B15: chr16:94664741:94664742:+_ENSMUSG00000040785_ENSMUST00000117648|mus_hu|mus_mus_mus_hu_False|68_98 (ssRNA)
RNA: GGGAGUUCUACAGUCCGACGAUCUGGUACUGAUCUUUGCAUUGGAUAUUCAGGAGAAAGGCUGGCCAAAGGUGUGUAUAUGCUGGUGUACUGGGGCAAACCUGGUAACACGUUUAUGUAUGCUGGCGGUGUCUGGGUGAUAUCCAACAGAGGAUUGAGCAUCA
B16: chr1:244855233:244855234:+_ENSG00000121644_ENST00000302550|hu_mus|hu_hu_hu_mus_True|58_78 (ssRNA)
RNA: GGGAGUUCUACAGUCCGACGAUCCAUCAGAUGGUAGGCGUUGCCCUUAUACUCUUUUCCCAGUUCUUCUACAAUUUUUUCUAUAUCAUCUUCUAGAAAGUCCGUACUUCCUAGAACAACAGCUUCUUUAAAUUUAAAUGUUUCCAACAGAGGAUUGAGCAUCA
B17: chr16:68260615:68260616:+_ENSG00000072736_ENST00000346183|hu_mus|FALSE|FALSE (ssRNA)
RNA: GGGAGUUCUACAGUCCGACGAUCUCUGAGAUAGAGCCUGCUGCAUUCACACUCAAAGCACCCAUCAUAUAAAAGUAUCCUAUUUAAAUAUAUAUAUAUAUAUAUAUAUAUAUAUAUAAAAGCAAAGCUCGUUUCCCACAGCUGCAACAGAGGAUUGAGCAUCA
B18: chr2:47387409:47387410:-_ENSG00000143933_ENST00000272298|hu_mus|FALSE|FALSE (ssRNA)
RNA: GGGAGUUCUACAGUCCGACGAUCCAACUUGGAAUGGAUUUGAGGCAAGUUGUGCCAUGAGCAGGUUUUCUUUAAGUGGCUAAACAAAGUUUAAAAAGCAAGUAACAAUAAAAGAAAAUGUUCCUGGUACAAUACCAGCAGUACCAACAGAGGAUUGAGCAUCA
B19: chr3:128532203:128532204:+_ENSG00000075785_ENST00000265062|hu_hu|FALSE|FALSE (ssRNA)
RNA: GGGAGUUCUACAGUCCGACGAUCACUGCAGCUUUCUGCCGAGGCCUUGGCCCGGUCAUUCUUGUCCAGUUUGAUAGGUUCAGGAAAUUCGUUGUACAGCUCCACCUCCGUUUCCUGCUUAAGUGCAUUCCGUGCAAUCGUCUGCAACAGAGGAUUGAGCAUCA
B20: chr13:115007635:115007636:+_ENSG00000130177_ENST00000356221|hu_hu|FALSE|FALSE (ssRNA)
RNA: GGGAGUUCUACAGUCCGACGAUCAAGCUUCAAAGCUUCUUUGUAGCUGUAGGUAGCCAGGGUUCGGUUAUCUAGAGCAUCAUAGAUUUUCCCGCGUAGAAGACAGAUAGAACUCUUUAUUGAAGACUGUGACAUUUCCCAGUCCAACAGAGGAUUGAGCAUCA
B21: chr14:14948730:14948731:-_ENSMUSG00000021737_ENSMUST00000022256|mus_hu|FALSE|FALSE (ssRNA)
RNA: GGGAGUUCUACAGUCCGACGAUCGAAAACAGAGUAACGGCAUUCAUAGAGUGAAAACAGAUACUGCCGAACUGCUGGAAGACUGUGCAACACUUCAAGAAUCUCUGCUCCUUUAAUGACCUUUUCCCUGAGAUCUGGUCUUUCCAACAGAGGAUUGAGCAUCA
B22: chr4:86222399:86222400:+_ENSMUSG00000070934_ENSMUST00000091064|mus_mus|FALSE|FALSE (ssRNA)
RNA: GGGAGUUCUACAGUCCGACGAUCGAACGUAGCUCUCUCGAACAGCAGAACUUCAUCAGCCUCAAUAAUCUGGGCAAAAUUCCUUAGGUUCAUCUCCAGCUGCUGAACGUUGGGGAUCAGCUGAUAGACGAUGCUGGACCAGGCCAACAGAGGAUUGAGCAUCA

For this assay, the target named is T1, UNK ZnF1-3 (human, UniProt Q9C0B0 31-174).
T1 sequence: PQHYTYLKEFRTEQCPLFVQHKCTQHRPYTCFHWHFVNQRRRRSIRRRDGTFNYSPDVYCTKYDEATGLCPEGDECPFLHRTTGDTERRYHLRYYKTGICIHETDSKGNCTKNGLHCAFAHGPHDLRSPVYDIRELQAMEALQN
Put plainly: nsRBNS (natural sequence RNA bind-n-seq); RBNS binding buffer (assumed for nsRBNS): 25 mM Tris pH 7.5, 150 mM KCl, 3 mM MgCl2, 0.01% Triton X-100, 500 ug/ml BSA, 20 U/ml SUPERase-In, 4 C; UNK is unkempt and MSI1 is Musashi-1; names of the RNAs are library labels; protein concentration not given here; high values mean tight binding.
Molecule B1 came in with a binding signal of 0.742 enrichment R.

For the molecule B2, the binding signal was 1.08 enrichment R.

Molecule B3 yielded a binding signal of 1.57 enrichment R.

In turn, B4 came in with a binding signal of 0.417 enrichment R.

In turn, B5 showed a binding signal of 0.395 enrichment R.

Regarding B6, the binding signal worked out at 0.912 enrichment R.

Consider B7, for which the binding signal is 1.28 enrichment R.

In turn, B8 registered a binding signal of 0.88 enrichment R.

With B9, the binding signal turned out to be 1.25 enrichment R.

For B10, the binding signal came out at 1.14 enrichment R.

The molecule B11 registered a binding signal of 0.657 enrichment R.

B12 gave a binding signal of 1.47 enrichment R.

B13 registered a binding signal of 0.983 enrichment R.

The molecule B14 came in with a binding signal of 1.38 enrichment R.

Regarding B15, the binding signal amounted to 1 enrichment R.

Molecule B16 gave a binding signal of 1.41 enrichment R.

In turn, B17 showed a binding signal of 2.29 enrichment R.

For B18, the binding signal stood at 0.884 enrichment R.

Consider B19, for which the binding signal is 0.543 enrichment R.

B20 gave a binding signal of 1.08 enrichment R.

Turning to B21, the binding signal stood at 1.97 enrichment R.

For B22, the binding signal is 1.24 enrichment R.
